# In PubChem BioAssay AID624296 (National Center for Advancing Translational Sciences (NCATS), 2012):
# About 9,900 (2.8%) of roughly 350,000 compounds were called active. This list was built around the results that the source calls inconclusive (neither active nor inactive); the mix of calls is not that of the screen. The call rests on the fitted dose curve; in most records, active means well fitted activation curve with a large enough effect; inconclusive means small, poorly fitted or top-dose-only effect; inactive means no such curve, though single readings can be large or run the other way. No potency is given beside an inconclusive call; the fits are too rough.
# Test: A quantitative high throughput screen for small molecules that induce DNA re-replication in MCF 10a normal breast cells. Further: nearly all actives have a fitted effect of over 50% in size. On activity, positive = re-replication: % of control where 0% means no effect.
# Conditions: MCF 10A DNA re-replication, Hoechst nuclear intensity, 48 h; activity, positive = re-replication: at 46.1 µM (top of the series)
# Potency means the concentration at half of the fitted maximal effect; tags describe the fitted curve by direction and shape.
Structure (SMILES),Potency,"activity, positive = re-replication"
COc1ccc(NC(=O)CCNC(=O)c2ccccc2Cl)cc1OC,"inconclusive [activator, single point]",
Cn1c(SCC(=O)N2CCCc3ccccc32)nc2ccccc2c1=O,"inconclusive [activator, single point]",
CCOC(=O)C1=C(COC(=O)/C=C/c2cccc(OC)c2)NC(=O)NC1C (stereo unspecified),,inactive: -6.04%
CCN(c1ccc(OC)cc1)S(=O)(=O)c1nnc(NC(=O)COc2ccc(C)cc2)s1,,inactive: 7.66%
COc1ccc(C(=O)/C=C/C(=O)N(CC(=O)NC2CCCCC2)Cc2cccs2)c(O)c1,active: 18.4 µM,
N#CCSc1nnc(COc2cccc3ccccc23)n1-c1ccccc1,"inconclusive [activator, partial curve, poor fit]",
O=C(Nc1ccc2c(c1)Cc1ccccc1-2)c1ccc(Br)o1,"inconclusive [activator, single point]",
COC(=O)CSc1nc(-c2cccs2)ccc1C#N,"inconclusive [activator, full curve]",
CCN(c1ccc(NS(=O)(=O)c2cc(Cl)ccc2Cl)cc1)C(C)C,active: 23.1 µM,
CCOC(=O)c1c(C)[nH]c(C2=NNC(=Nc3cccc(Cl)c3)SC2)c1C,active: 6.51 µM,
O=C(COc1ccc(Br)cc1)Nc1ccc(CN2CCOCC2)cc1,,inactive: 8.43%
CCOC(=O)COc1ccc2c(c1)C(=O)CC(C)(c1cccnc1)O2 (stereo unspecified),"inconclusive [activator, partial curve, poor fit]",
Cc1c(Cl)cccc1S(=O)(=O)N1CCC(C(=O)NNC(=O)C2CC2)CC1,"inconclusive [activator, full curve, poor fit]",
Cc1ccccc1-c1nc2c3ccccc3nc(=S)n2[nH]1,active: 7.31 µM,
Cc1cc(-c2ccccc2)nc2cc(C(=O)N(Cc3ccccc3)Cc3ccccc3)nn12,"inconclusive [activator, single point]",
C=CCN1C(=O)C(O)(CC(=O)c2ccco2)c2cc(Br)ccc21 (stereo unspecified),"inconclusive [activator, partial curve, poor fit]",
Cc1cc(C)nc(SCNC(=O)c2ccccc2)n1,"inconclusive [activator, single point]",
CSc1nc(-c2ccccc2)nc(C(Cl)Cl)n1,active: 2.59 µM,
CCOC(=O)c1c(C)nc2sc(C(=O)Nc3ccc(C(C)=O)cc3)c(N)c2c1-c1ccc(OC)cc1,,inactive: 26%
COc1ccc(CCNc2nc(-c3cccnc3)cs2)cc1OC,,inactive: 27%
S=C(NCc1ccc2c(c1)OCO2)NC1CCN(Cc2ccccc2)CC1,"inconclusive [activator, partial curve, poor fit]",
